This note sets out measurements from paper PMC11995724, “Antibiotic target discovery by integrated phenotypic and activity-based profiling of electrophilic fragments” (Cell chemical biology, 2025).

The structures appear in SMILES notation. In all, about 3,200 compounds went through this assay and about 110 (3.4%) showed an effect of 50% or more. The list shows a part of the results.

For this experiment, the system named is T1, V. cholerae SAD30.
T1 construct: SAD30
Also on record: species or system S. aureus MSSA476 (TSB) or V. cholerae SAD30 (LB); 384-well bacterial growth screen at 25 uM, OD600 relative to DMSO control. The following applies: relative growth, OD600, LB; 25 µM; inhibitor.
Consider `O=C(CCl)NCC1CCCCC1` [5-J06, 2-chloro-N-(cyclohexylmethyl)acetamide], for which the “% of control remaining” value came to 96.501%. The result for `CS(=O)(=O)Nc1ccc(C(=O)CCl)cc1` [10-D19, N-[4-(2-chloroacetyl)phenyl]methanesulfonamide] reads 31.3267%; that for `C=CCNC(=O)C(C#N)=Cc1cccc(C)c1` [8-D05, 2-cyano-3-(3-methylphenyl)-N-(prop-2-en-1-yl)prop-2-enamide], 83.1407%. In the case of `O=C(CCl)NC1CCCN(Cc2ccccc2)C1=O` (centres unmarked) [7-J10, N-(1-benzyl-2-oxopiperidin-3-yl)-2-chloroacetamide], the “% of control remaining” value was determined as 79.9604%. As for `C=CC(=O)N1CCC(C(=O)N[C@H]2CC[C@@H](S(C)(=O)=O)CC2)CC1` [2-J08, 1-(prop-2-enoyl)-N-[(1s,4s)-4-methanesulfonylcyclohexyl]piperidine-4-carboxamide], the “% of control remaining” value is 87.5712%. To `C=CC(=O)NC1CCOC(c2cnn(C)c2)C1` (centres unmarked) [2-F07, N-[2-(1-methyl-1H-pyrazol-4-yl)oxan-4-yl]prop-2-enamide] belongs 94.3646%; to `C=CC(=O)N1CCCC(Oc2ccnc(C(=O)NC)c2)C1` (centres unmarked) [2-L22, N-methyl-4-{[1-(prop-2-enoyl)piperidin-3-yl]oxy}pyridine-2-carboxamide], 101.004%.

For `CC(C1CC1)N(C(=O)CCl)C1CC1` (centres unmarked) [5-F12, 2-chloro-N-cyclopropyl-N-(1-cyclopropylethyl)acetamide], the “% of control remaining” value is on record as 92.298%.

With `COc1ccc(C=C(C#N)C(=O)Nc2cccc(C(F)(F)F)c2)cc1` [8-A03, 2-cyano-3-(4-methoxyphenyl)-N-[3-(trifluoromethyl)phenyl]prop-2-enamide], the “% of control remaining” value worked out at 102.039%. Turning to `N#CC(=Cc1cccc(Cl)c1Cl)C(N)=O` [8-J21, 2-cyano-3-(2,3-dichlorophenyl)prop-2-enamide], the “% of control remaining” value turned out to be 76.2067%. As for `C=CC(=O)NC1CS(=O)(=O)C1` [3-P18, N-(1,1-dioxo-1lambda6-thietan-3-yl)prop-2-enamide], the “% of control remaining” value stood at 112.909%. Turning to `C=CC(=O)N1CCC(C(=O)Nc2ncc(CCO)s2)CC1` [2-A08, N-[5-(2-hydroxyethyl)-1,3-thiazol-2-yl]-1-(prop-2-enoyl)piperidine-4-carboxamide], the “% of control remaining” value was 94.9821%. Take `C=CC(=O)N1CCC(Cn2nc(C)cc2C)CC1` [2-C17, 1-{4-[(3,5-dimethyl-1H-pyrazol-1-yl)methyl]piperidin-1-yl}prop-2-en-1-one]: the “% of control remaining” value came out at 93.9014%. As for `O=C(CCl)N[C@H](CO)Cc1ccccc1` [6-G20, 2-chloro-N-[(2S)-1-hydroxy-3-phenylpropan-2-yl]acetamide], the “% of control remaining” value was determined as 84.6336%. On to `O=C1NC(=O)c2cc(NC(=O)N3CCSSCC3)ccc21` [10-K22, N-(1,3-dioxo-2,3-dihydro-1H-isoindol-5-yl)-1,2,5-dithiazepane-5-carboxamide], for which the “% of control remaining” value amounted to 100.526%. To `C=CC(=O)NCC(C)Cn1ccc(C)n1` (centres unmarked) [2-D03, N-[2-methyl-3-(3-methyl-1H-pyrazol-1-yl)propyl]prop-2-enamide] belongs 120.149%; to `CC(Cl)C(=O)Nc1ccc2c(c1)ncn2CCN(C)C` (centres unmarked) [6-P15, 2-chloro-N-{1-[2-(dimethylamino)ethyl]-1H-1,3-benzodiazol-5-yl}propanamide], 104.048%. To `Cc1nnc(C(C)NC(=O)C(C)Cl)s1` (centres unmarked) [7-D11, 2-chloro-N-[1-(5-methyl-1,3,4-thiadiazol-2-yl)ethyl]propanamide] belongs 81.282%. For `Cn1cc(C=C(C#N)C(=O)N2CCCC2)c(-c2cc3ccccc3o2)n1` [9-D18, 3-[3-(1-benzofuran-2-yl)-1-methyl-1H-pyrazol-4-yl]-2-(pyrrolidine-1-carbonyl)prop-2-enenitrile], the “% of control remaining” value came out at 81.9171%. To `Cc1ccc(-c2cc(NC(=O)CCl)n(-c3ccccc3)n2)cc1` [4-C06, 2-chloro-N-[3-(4-methylphenyl)-1-phenyl-1H-pyrazol-5-yl]acetamide] belongs 101.272%; to `N#CCCN(C(=O)CCl)c1ccccc1` [6-I12, 2-chloro-N-(2-cyanoethyl)-N-phenylacetamide], 84.7853%.

Turning to `C=CC(=O)N1CCC(C(=O)NCCn2c(=O)[nH]c3ccccc32)CC1` [3-J03, N-[2-(2-oxo-2,3-dihydro-1H-1,3-benzodiazol-1-yl)ethyl]-1-(prop-2-enoyl)piperidine-4-carboxamide], the “% of control remaining” value is given as 107.44%. To `C=CC(=O)Nc1ccc(C(=O)NC2CC(C)(C)OC2=O)cc1` (centres unmarked) [3-B08, N-(5,5-dimethyl-2-oxooxolan-3-yl)-4-(prop-2-enamido)benzamide] belongs 110.263%; to `COc1cc(NC(=O)CCl)c(OC)cc1Cl` [5-C05, 2-chloro-N-(4-chloro-2,5-dimethoxyphenyl)acetamide], 97.5097%.

`C=CC(=O)N(CC)CC(=O)N1CCCC(F)(F)C1` [2-G14, N-[2-(3,3-difluoropiperidin-1-yl)-2-oxoethyl]-N-ethylprop-2-enamide]: the “% of control remaining” value is reported as 90.0415%. `C=CC(=O)NCc1cn([C@@H]2COC[C@H]2OC)nn1` [1-J17, N-({1-[(3R,4S)-4-methoxyoxolan-3-yl]-1H-1,2,3-triazol-4-yl}methyl)prop-2-enamide]: the “% of control remaining” value was 85.0523%.

For the compound `C=CC(=O)Nc1ncc(-c2cccc(C)c2)s1` [1-P14, N-[5-(3-methylphenyl)-1,3-thiazol-2-yl]prop-2-enamide], the “% of control remaining” value is 122.915%. To `CC(=O)NCCc1ccc(C(=O)CCl)cc1` [10-N03, N-{2-[4-(2-chloroacetyl)phenyl]ethyl}acetamide] belongs 115.8%; to `C=CC(=O)N(CC)CC(=O)N1CCC(c2nncn2C)CC1` [2-L10, N-ethyl-N-{2-[4-(4-methyl-4H-1,2,4-triazol-3-yl)piperidin-1-yl]-2-oxoethyl}prop-2-enamide], 89.5783%.
